Patent US11178870B2 (priority 2017, dated 2021)

What was measured:
[1] = system: Colletotrichum orbiculare; settings: 250 ppm spray, 2.5 ml/pot; investigated 6 to 10 days after inoculation
[2] = system: Magnaporthe grisea; type: in vivo; settings: class of control value, Table 7
[3] = system: Phytophthora infestans; type: in vivo; settings: class of control value, Table 7

Compound | Test H control value (anthracnose on cucumber) [1] | Test A control value (blast on rice) [2] | Test F control value (late blight on tomato) [3]
CCn1c(-c2c(F)cccc2F)c(-c2sc(Br)cc2C)ccc1=O [Compound 386] | L (L shows the control value of 50% or less) | H (H shows the control value more than 50%) | L (L shows the control value of 50% or less)
O=c1ccc(-c2sccc2Cl)c(-c2c(F)cccc2F)n1CC(F)F [Compound 394] | H (H shows the control value more than 50%) | H (H shows the control value more than 50%) | H (H shows the control value more than 50%)
Cc1cnn(-c2cc(Br)c(=O)n(CC(F)F)c2-c2ccccc2Br)c1 [Compound 408] | L (L shows the control value of 50% or less) | H (H shows the control value more than 50%) | L (L shows the control value of 50% or less)
O=c1c(Br)cc(-c2cc(Br)sc2Cl)c(-c2c(F)cccc2F)n1CC(F)F [Compound 400] | L (L shows the control value of 50% or less) | H (H shows the control value more than 50%) | L (L shows the control value of 50% or less)
